Measurements published in the supplement of paper PMC7826260.
This is one part of the list. Cleavage of a single-stranded DNA pool by Rep nickase domains was read by sequencing for 1 h at 37 °C with 3 µM enzyme; only the middle of the 90-letter strands is printed. The score is log2 (uncut reads / reads without enzyme); strong cutting gives strongly negative numbers. There is no active / inactive call. Shares of all reads are compared; uncut strands gain when others are lost, and binding without cutting may add a little.

Experiments:
Assay in all cases: uncleaved DNA left, log2 of reads against the no-enzyme library (log2 ratio); higher = less cleavage (more negative = more Rep cleavage of the k-mer); sequences stand for … in CTCGTCCG…ACCGGAGA
[1] = test system: T1, Rep nickase domain of Muscovy duck circovirus
T1 sequence (residues 1-111 of Rep, tag left off): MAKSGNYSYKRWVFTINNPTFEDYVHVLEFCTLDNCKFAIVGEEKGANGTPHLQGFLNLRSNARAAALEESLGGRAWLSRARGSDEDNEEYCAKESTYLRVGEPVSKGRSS
Description: (§1)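 A pool of 90-nt single-stranded DNAs with seven random bases just before the constant AC of the nick site (name = the seven bases) was cut by 3 µM recombinant His6-SUMO-tagged Rep nickase domain (300 nM DNA, 50 mM HEPES pH 8.0, 50 mM NaCl, 1 mM MnCl2, 1 h, 37 °C, three replicates). Uncut DNA was amplified and sequenced.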

[2] = test system: T2, Rep nickase domain of banana bunchy top virus
T2 sequence (residues 1-94 of Rep, tag left off): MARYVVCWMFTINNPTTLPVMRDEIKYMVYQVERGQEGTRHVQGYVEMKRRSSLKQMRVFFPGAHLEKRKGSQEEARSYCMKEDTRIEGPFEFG
Description: as §1

[3] = test system: T3, Rep nickase domain of cabbage leaf curl virus
T3 sequence (residues 1-116 of Rep, tag left off): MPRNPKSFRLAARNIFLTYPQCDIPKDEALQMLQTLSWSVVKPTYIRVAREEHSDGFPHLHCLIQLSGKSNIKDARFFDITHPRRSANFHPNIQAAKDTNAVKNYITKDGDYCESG
Description: as §1

[4] = test system: T4, Rep nickase domain of chickpea chlorotic dwarf virus
T4 sequence (residues 1-124 of Rep, tag left off): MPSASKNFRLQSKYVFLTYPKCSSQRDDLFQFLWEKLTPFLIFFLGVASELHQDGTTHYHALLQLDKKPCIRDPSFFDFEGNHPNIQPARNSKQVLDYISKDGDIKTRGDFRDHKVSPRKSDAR
Description: as §1

[5] = test system: T5, Rep nickase domain of faba bean necrotic yellows virus
T5 sequence (residues 1-98 of Rep, tag left off): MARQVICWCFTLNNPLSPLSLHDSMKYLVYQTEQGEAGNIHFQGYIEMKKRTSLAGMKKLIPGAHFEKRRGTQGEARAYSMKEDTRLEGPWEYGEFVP
Description: as §1

[6] = test system: T6, Rep nickase domain of maize striate mosaic virus
T6 sequence (residues 1-117 of Rep, tag left off): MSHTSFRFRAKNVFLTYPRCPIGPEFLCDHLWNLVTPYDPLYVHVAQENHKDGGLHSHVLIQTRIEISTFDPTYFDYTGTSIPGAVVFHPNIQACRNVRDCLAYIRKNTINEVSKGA
Description: as §1

[7] = test system: T7, Rep nickase domain of porcine circovirus 2
T7 sequence (residues 2-116 of Rep, tag left off): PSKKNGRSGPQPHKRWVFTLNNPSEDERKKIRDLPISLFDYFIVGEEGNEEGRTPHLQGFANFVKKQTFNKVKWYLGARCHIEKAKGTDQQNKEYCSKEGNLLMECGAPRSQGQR
Description: as §1

[8] = test system: T8, Rep nickase domain of tomato golden mosaic virus
T8 sequence (residues 1-124 of Rep, tag left off): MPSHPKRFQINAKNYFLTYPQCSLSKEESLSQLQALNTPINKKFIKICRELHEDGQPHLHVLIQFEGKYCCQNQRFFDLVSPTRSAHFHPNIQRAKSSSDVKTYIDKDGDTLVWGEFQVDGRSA
Description: as §1

[9] = test system: T9, Rep nickase domain of tomato yellow leaf curl virus
T9 sequence (residues 1-136 of Rep, tag left off): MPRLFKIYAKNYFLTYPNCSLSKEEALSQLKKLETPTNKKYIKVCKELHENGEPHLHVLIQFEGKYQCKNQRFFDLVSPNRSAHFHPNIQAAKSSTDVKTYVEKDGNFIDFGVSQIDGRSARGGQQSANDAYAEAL
Description: as §1

[10] = test system: T10, Rep nickase domain of wheat dwarf virus
T10 sequence (residues 1-137 of Rep, tag left off): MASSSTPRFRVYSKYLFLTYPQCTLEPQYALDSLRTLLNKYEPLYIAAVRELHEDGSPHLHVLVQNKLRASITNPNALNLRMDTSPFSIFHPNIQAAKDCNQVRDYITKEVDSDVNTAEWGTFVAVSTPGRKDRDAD
Description: as §1

Sequence | uncleaved DNA left (log2) [1] | uncleaved DNA left (log2) [2] | uncleaved DNA left (log2) [3] | uncleaved DNA left (log2) [4] | uncleaved DNA left (log2) [5] | uncleaved DNA left (log2) [6] | uncleaved DNA left (log2) [7] | uncleaved DNA left (log2) [8] | uncleaved DNA left (log2) [9] | uncleaved DNA left (log2) [10]
GCTTCCG | -0.0244 | -0.00665 | -0.677 | -0.531 | -0.0603 | -0.874 | 0.18 | -0.046 | -0.0152 | -0.0913
CGAAACG | 0.0515 | 0.101 | -0.677 | -0.349 | 0.125 | -1.04 | 0.208 | 0.0293 | 0.113 | -0.00786
TCTTAGC | 0.158 | 0.00866 | -0.279 | -0.448 | -0.00808 | -1.22 | 0.0164 | -0.0699 | 0.00839 | -0.0611
GCAGGCG | -0.123 | 0.0625 | -0.338 | 1.07 | 0.065 | 0.665 | 0.156 | -0.0503 | 0.00427 | -0.0314
GAAACTC | 0.084 | 0.149 | 0.131 | -0.0642 | 0.0425 | 0.738 | 0.0217 | 0.0762 | 0.131 | 0.0851
ACTGAGC | 0.0856 | 0.0305 | -0.00709 | 0.511 | 0.000663 | 0.241 | 0.156 | 0.123 | 0.008 | 0.0669
TTAGAGT | 0.0878 | 0.0289 | 0.0136 | -0.493 | 0.048 | -0.567 | -0.0643 | -0.103 | 0.0749 | 0.0512
CGCCAGG | -0.0645 | -0.166 | 0.0735 | 0.485 | -0.00882 | 0.319 | 0.096 | -0.135 | -0.113 | -0.077
TTTTTCT | -3.19 | -0.184 | -0.0532 | -2.25 | -0.133 | -0.619 | -2.78 | -0.195 | -0.0356 | -0.241
AGGGCAT | -0.0432 | 0.0233 | 0.591 | 1.95 | 0.0712 | 2.09 | 0.109 | 0.00798 | -0.119 | 0.139
ATACATT | -0.0618 | -0.0873 | -0.417 | -1.84 | -0.107 | -0.306 | -0.323 | -0.0923 | -0.00361 | -0.181
GGCTCGC | -0.00781 | -0.00154 | 0.322 | 0.71 | -0.0922 | 1.45 | 0.0699 | 0.0764 | 0.0665 | -0.00725
CGATTGG | 0.055 | -0.0231 | -0.38 | -0.103 | 0.0093 | -0.652 | 0.0311 | -0.0741 | -0.0859 | 0.0291
GAATGAC | 0.0164 | 0.0453 | 0.33 | 0.937 | -0.0135 | 1.1 | 0.172 | -0.035 | 0.101 | 0.102
TCCCCCA | -0.102 | -0.128 | 0.11 | -1.02 | -0.0367 | -0.397 | -0.459 | -0.266 | -0.0881 | -0.0867
